Test results as given in the DeepSol protein solubility set.

Assay: soluble on expression in E. coli; label from the status in PepcDB or PDB records

Row | Sequence | soluble on expression in E. coli
1 | MASSTSLPAPGSRPKKPLGKMADWFRQTLLKKPKKRPNSPESTSSDASQPTSQDSPLPPSLSSVTSPSLPPTHASDSGSSRWSKDYDVCVCHSEEDLVAAQDLVSYLEGSTASLRCFLQLRDATPGGAIVSELCQALSSSHCRVLLITPGFLQDPWCKYQMLQALTEAPGAEGCTIPLLSGLSRAAYPPELRFMYYVDGRGPDGGFRQVKEAVMRYLQTLSWHLLYHGTPEIGVKLETENPCRASDSHKCDKRYRE | soluble
2 | MGSDKIHHHHHHASCDSFNEDLPECRLSVKFKYDYNMEFADAFHAQVDKVELYVFDKNGKYLFKQAEEGSALSTGNYLMEVELPVGQYQFMAWAGARDSYDITSLTPGVSTLTDLKLKLKREASLIINKRMETLWYGEVINVNFDGTVHQTETINLIRDTKIVRFGFQSYTGSWTLDMNDYDYEIIESNGHLGHDNSLLDDDVLSFRPYYMEQKDPATAYVDMNTMRLMEDRKTRLVLTEKASGKRVFDINLIDYLAMTNAEGKNLSTQEYLDRQSNYHIIFFLSESWLAVQIVVNGWVHRIQEENQ | not soluble
